This is one part of the list.
B1: PhoQ; a variant is named by its letters at X, in order, P23837 (parent)
chain: MKKLLRLFFPLSLRVRFLLATAAVVLVLSLAYGMVALIGYSVSFDKTTFRLLRGESNLFYTLAKWENNKLHVELPENIDKQSPTMTLIYDENGQLLWAQRDVPWLMKMIQPDWLKSNGFHEIEADVNDTSLLLSGDHSIQQQLQEVREDDDDAEMTHSVAVNVYPATSRMPKLTIVVVDTIPVELKSSYMVWSWFIYVLSANLLLVIPLLWVAAWWSLRPIEALAKEVRELEEHNRELLNPATTRELTSLVRNLNRLLKSERERYDKYRTTLTDLTHSLKTPLXXLQXXLRSLRSEKMSVSDAEPVMLEQISRISQQIGYYLHRASMRGGTLLSRELHPVAPLLDNLTSALNKVYQRKGVNISLDISPEISFVGEQNDFVEVMGNVLDNACKYCLEFVEISARQTDEHLYIVVEDDGPGIPLSKREVIFDRGQRVDTLRPGQGVGLAVAREITEQYEGKIVAGESMLGGARMEVIFGRQHSAPKDE

Variants of: B1
Assay: enrichment ratio after two sorts for PhoP signalling (ratio (wild type AVST 3.29)); higher = more functional
Details: with PhoP (E. coli)

Question: For FPHF, which enrichment ratio is on record?
Answer: ≤ 0.25

Question: With AFGM as the variant, how does the enrichment ratio read?
Answer: ≤ 0.25

Question: With HPKK as the variant, how does the enrichment ratio read?
Answer: ≤ 0.25

Question: Which enrichment ratio does the source give for AKGE here?
Answer: ≤ 0.25

Question: How did the enrichment ratio turn out when WNYT was run?
Answer: ≤ 0.25

Question: Which enrichment ratio does the source give for HHEM here?
Answer: ≤ 0.25

Question: With KCYK as the variant, how does the enrichment ratio read?
Answer: ≤ 0.25

Question: For NQCD, which enrichment ratio is on record?
Answer: ≤ 0.25

Question: EFRH was tested. Which enrichment ratio did it give?
Answer: ≤ 0.25

Question: How did the enrichment ratio turn out when GWEL was run?
Answer: ≤ 0.25

Question: How did the enrichment ratio turn out when PEKN was run?
Answer: ≤ 0.25

Question: With EIRS as the variant, how does the enrichment ratio read?
Answer: ≤ 0.25

Question: Which enrichment ratio does the source give for RLTR here?
Answer: ≤ 0.25

Question: How did the enrichment ratio turn out when FYLI was run?
Answer: ≤ 0.25

Question: For PIAK, which enrichment ratio is on record?
Answer: ≤ 0.25

Question: For TKRT, which enrichment ratio is on record?
Answer: ≤ 0.25

Question: Which enrichment ratio does the source give for SDNQ here?
Answer: ≤ 0.25

Question: Which enrichment ratio does the source give for TKTM here?
Answer: 2.79

Question: ENTT was tested. Which enrichment ratio did it give?
Answer: ≤ 0.25

Question: With ASII as the variant, how does the enrichment ratio read?
Answer: 12.7

Question: Which enrichment ratio does the source give for FENC here?
Answer: ≤ 0.25

Question: LMSF was tested. Which enrichment ratio did it give?
Answer: ≤ 0.25

Question: For HQPR, which enrichment ratio is on record?
Answer: ≤ 0.25

Question: AAFR was tested. Which enrichment ratio did it give?
Answer: ≤ 0.25

Question: Which enrichment ratio does the source give for IHSF here?
Answer: ≤ 0.25

Question: Which enrichment ratio does the source give for VRYN here?
Answer: ≤ 0.25

Question: How did the enrichment ratio turn out when GKHV was run?
Answer: ≤ 0.25

Question: LQCP was tested. Which enrichment ratio did it give?
Answer: ≤ 0.25

Question: Which enrichment ratio does the source give for HEYQ here?
Answer: ≤ 0.25

Question: How did the enrichment ratio turn out when IECC was run?
Answer: 11.9

Question: TDRM was tested. Which enrichment ratio did it give?
Answer: ≤ 0.25

Question: SDLA was tested. Which enrichment ratio did it give?
Answer: 1.18

Question: For KDDT, which enrichment ratio is on record?
Answer: ≤ 0.25

Question: For KAYE, which enrichment ratio is on record?
Answer: ≤ 0.25

Question: Which enrichment ratio does the source give for WSNP here?
Answer: ≤ 0.25

Question: For HLDK, which enrichment ratio is on record?
Answer: ≤ 0.25

Question: For TELI, which enrichment ratio is on record?
Answer: 19.5

Question: With GNKF as the variant, how does the enrichment ratio read?
Answer: ≤ 0.25

Question: With EVRA as the variant, how does the enrichment ratio read?
Answer: ≤ 0.25

Question: How did the enrichment ratio turn out when QEKT was run?
Answer: ≤ 0.25

Question: For QRDG, which enrichment ratio is on record?
Answer: ≤ 0.25

Question: How did the enrichment ratio turn out when VKMH was run?
Answer: ≤ 0.25

Question: TSYN was tested. Which enrichment ratio did it give?
Answer: 1.56

Question: Which enrichment ratio does the source give for FTVN here?
Answer: ≤ 0.25

Question: How did the enrichment ratio turn out when DGQI was run?
Answer: ≤ 0.25

Question: Which enrichment ratio does the source give for RLGH here?
Answer: ≤ 0.25

Question: Which enrichment ratio does the source give for VSVK here?
Answer: ≤ 0.25

Question: For GPWT, which enrichment ratio is on record?
Answer: ≤ 0.25

Question: With HHCD as the variant, how does the enrichment ratio read?
Answer: ≤ 0.25

Question: Which enrichment ratio does the source give for RLRC here?
Answer: ≤ 0.25

Question: For NLAG, which enrichment ratio is on record?
Answer: ≤ 0.25

Question: For YIVP, which enrichment ratio is on record?
Answer: ≤ 0.25

Question: For PFSD, which enrichment ratio is on record?
Answer: ≤ 0.25

Question: With VYPH as the variant, how does the enrichment ratio read?
Answer: ≤ 0.25

Question: Which enrichment ratio does the source give for AGLS here?
Answer: 13.8

Question: How did the enrichment ratio turn out when LCYP was run?
Answer: ≤ 0.25

Question: With TFET as the variant, how does the enrichment ratio read?
Answer: ≤ 0.25

Question: MMWL was tested. Which enrichment ratio did it give?
Answer: ≤ 0.25

Question: QYNS was tested. Which enrichment ratio did it give?
Answer: ≤ 0.25

Question: With FAFE as the variant, how does the enrichment ratio read?
Answer: ≤ 0.25

Question: Which enrichment ratio does the source give for DQEG here?
Answer: ≤ 0.25

Question: ARIW was tested. Which enrichment ratio did it give?
Answer: ≤ 0.25

Question: Which enrichment ratio does the source give for ATTA here?
Answer: ≤ 0.25

Question: For HTLE, which enrichment ratio is on record?
Answer: ≤ 0.25

Question: For KKDS, which enrichment ratio is on record?
Answer: ≤ 0.25

Question: For PTRI, which enrichment ratio is on record?
Answer: ≤ 0.25

Question: For NFPK, which enrichment ratio is on record?
Answer: ≤ 0.25

Question: For ARYE, which enrichment ratio is on record?
Answer: ≤ 0.25

Question: VYSF was tested. Which enrichment ratio did it give?
Answer: ≤ 0.25

Question: Which enrichment ratio does the source give for KHCH here?
Answer: ≤ 0.25

Question: For LYMP, which enrichment ratio is on record?
Answer: ≤ 0.25

Question: For QVGY, which enrichment ratio is on record?
Answer: ≤ 0.25

Question: How did the enrichment ratio turn out when LKIR was run?
Answer: ≤ 0.25

Question: AIST was tested. Which enrichment ratio did it give?
Answer: 6.85

Question: For DTCV, which enrichment ratio is on record?
Answer: ≤ 0.25

Question: Which enrichment ratio does the source give for IPNN here?
Answer: ≤ 0.25

Question: How did the enrichment ratio turn out when LHNR was run?
Answer: ≤ 0.25

Question: Which enrichment ratio does the source give for DMRC here?
Answer: ≤ 0.25

Question: With VISG as the variant, how does the enrichment ratio read?
Answer: ≤ 0.25

Question: TRTY was tested. Which enrichment ratio did it give?
Answer: ≤ 0.25

Question: Which enrichment ratio does the source give for SART here?
Answer: ≤ 0.25

Question: How did the enrichment ratio turn out when AEVV was run?
Answer: 14.7

Question: With WNCH as the variant, how does the enrichment ratio read?
Answer: ≤ 0.25

Question: For IIIK, which enrichment ratio is on record?
Answer: ≤ 0.25

Question: With IGES as the variant, how does the enrichment ratio read?
Answer: ≤ 0.25

Question: How did the enrichment ratio turn out when TSWS was run?
Answer: 9.6

Question: With NSCL as the variant, how does the enrichment ratio read?
Answer: ≤ 0.25

Question: Which enrichment ratio does the source give for ANSR here?
Answer: ≤ 0.25

Question: LQDF was tested. Which enrichment ratio did it give?
Answer: ≤ 0.25

Question: With NFAW as the variant, how does the enrichment ratio read?
Answer: ≤ 0.25

Question: KMYD was tested. Which enrichment ratio did it give?
Answer: ≤ 0.25

Question: For SWVN, which enrichment ratio is on record?
Answer: ≤ 0.25

Question: PSDM was tested. Which enrichment ratio did it give?
Answer: ≤ 0.25

Question: How did the enrichment ratio turn out when KGAH was run?
Answer: ≤ 0.25

Question: ENLT was tested. Which enrichment ratio did it give?
Answer: ≤ 0.25

Question: How did the enrichment ratio turn out when DLYI was run?
Answer: ≤ 0.25

Question: How did the enrichment ratio turn out when TSYD was run?
Answer: ≤ 0.25

Question: Which enrichment ratio does the source give for PCDQ here?
Answer: ≤ 0.25

Question: With GSEN as the variant, how does the enrichment ratio read?
Answer: ≤ 0.25

Question: How did the enrichment ratio turn out when DYFY was run?
Answer: ≤ 0.25

Question: For ERYS, which enrichment ratio is on record?
Answer: ≤ 0.25

Question: HPCG was tested. Which enrichment ratio did it give?
Answer: ≤ 0.25

Question: Which enrichment ratio does the source give for SITW here?
Answer: 4

Question: How did the enrichment ratio turn out when KEFC was run?
Answer: ≤ 0.25

Question: How did the enrichment ratio turn out when NVFP was run?
Answer: ≤ 0.25

Question: For YAES, which enrichment ratio is on record?
Answer: ≤ 0.25

Question: Which enrichment ratio does the source give for IYCY here?
Answer: ≤ 0.25

Question: Which enrichment ratio does the source give for KILE here?
Answer: ≤ 0.25

Question: Which enrichment ratio does the source give for GHHT here?
Answer: ≤ 0.25

Question: Which enrichment ratio does the source give for VCKN here?
Answer: ≤ 0.25

Question: With GENA as the variant, how does the enrichment ratio read?
Answer: ≤ 0.25

Question: INGY was tested. Which enrichment ratio did it give?
Answer: ≤ 0.25

Question: How did the enrichment ratio turn out when STTC was run?
Answer: 5.19

Question: For NAPN, which enrichment ratio is on record?
Answer: ≤ 0.25

Question: How did the enrichment ratio turn out when GEHP was run?
Answer: ≤ 0.25

Question: How did the enrichment ratio turn out when DYQM was run?
Answer: ≤ 0.25

Question: How did the enrichment ratio turn out when DYRP was run?
Answer: ≤ 0.25

Question: For RCKA, which enrichment ratio is on record?
Answer: ≤ 0.25

Question: Which enrichment ratio does the source give for ASRT here?
Answer: ≤ 0.25

Question: YNDP was tested. Which enrichment ratio did it give?
Answer: ≤ 0.25

Question: KPHG was tested. Which enrichment ratio did it give?
Answer: ≤ 0.25

Question: Which enrichment ratio does the source give for ATRK here?
Answer: ≤ 0.25

Question: Which enrichment ratio does the source give for HTRY here?
Answer: ≤ 0.25

Question: WPSP was tested. Which enrichment ratio did it give?
Answer: ≤ 0.25

Question: With YQQD as the variant, how does the enrichment ratio read?
Answer: ≤ 0.25

Question: For YEVH, which enrichment ratio is on record?
Answer: 0.412

Question: Which enrichment ratio does the source give for HIGP here?
Answer: ≤ 0.25

Question: With ISAK as the variant, how does the enrichment ratio read?
Answer: ≤ 0.25

Question: YHGH was tested. Which enrichment ratio did it give?
Answer: ≤ 0.25

Question: Which enrichment ratio does the source give for ATRV here?
Answer: ≤ 0.25

Question: With SWEC as the variant, how does the enrichment ratio read?
Answer: ≤ 0.25

Question: With GMCL as the variant, how does the enrichment ratio read?
Answer: 6.21

Question: With PVCQ as the variant, how does the enrichment ratio read?
Answer: ≤ 0.25

Question: How did the enrichment ratio turn out when EKGF was run?
Answer: ≤ 0.25

Question: How did the enrichment ratio turn out when LIRF was run?
Answer: ≤ 0.25

Question: How did the enrichment ratio turn out when RINL was run?
Answer: 0.723

Question: With HAHH as the variant, how does the enrichment ratio read?
Answer: ≤ 0.25

Question: NRIN was tested. Which enrichment ratio did it give?
Answer: ≤ 0.25

Question: How did the enrichment ratio turn out when GGIF was run?
Answer: ≤ 0.25

Question: With GGST as the variant, how does the enrichment ratio read?
Answer: 4.04

Question: With GSEG as the variant, how does the enrichment ratio read?
Answer: ≤ 0.25

Question: How did the enrichment ratio turn out when KFKV was run?
Answer: ≤ 0.25

Question: Which enrichment ratio does the source give for WFPA here?
Answer: ≤ 0.25

Question: Which enrichment ratio does the source give for HCKI here?
Answer: ≤ 0.25

Question: GPRT was tested. Which enrichment ratio did it give?
Answer: ≤ 0.25

Question: With QQVH as the variant, how does the enrichment ratio read?
Answer: ≤ 0.25

Question: How did the enrichment ratio turn out when HNTF was run?
Answer: ≤ 0.25

Question: Which enrichment ratio does the source give for QPHN here?
Answer: ≤ 0.25

Question: With PYVM as the variant, how does the enrichment ratio read?
Answer: ≤ 0.25

Question: For KLHR, which enrichment ratio is on record?
Answer: ≤ 0.25

Question: Which enrichment ratio does the source give for ENTS here?
Answer: ≤ 0.25

Question: With QPYM as the variant, how does the enrichment ratio read?
Answer: ≤ 0.25

Question: With HKLS as the variant, how does the enrichment ratio read?
Answer: ≤ 0.25
